Results from publication PMC9911399, “Two distinct binding modes provide the RNA-binding protein RbFox with extraordinary sequence specificity”.
Residue numbers refer to the chain shown, from its start. The list shows a part of the results.

T1: RBFOX1 RRM (Homo sapiens, UniProt Q9NWB1 109-208)
T1 sequence: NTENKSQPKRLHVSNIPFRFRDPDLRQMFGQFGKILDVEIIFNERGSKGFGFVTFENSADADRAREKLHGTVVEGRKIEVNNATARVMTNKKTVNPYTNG

B1: CUAGUGA (DNA:RNA)
RNA: GGGAGACCGGAAUUCAGAUUGUCCCUAGUGAUUAAAUCCCGUCGUAGCCACCA
DNA 1: CAATCTGAATTCCGGTCTCCC
DNA 2: TGGTGGCTACGACGGGATT
B2: CAAGAUC (DNA:RNA)
RNA: B1 RNA with U26A, U29A, G30U, A31C
DNA 1: CAATCTGAATTCCGGTCTCCC
DNA 2: TGGTGGCTACGACGGGATT
B3: CUACGUC (DNA:RNA)
RNA: B1 RNA with G28C, U29G, G30U, A31C
DNA 1: CAATCTGAATTCCGGTCTCCC
DNA 2: TGGTGGCTACGACGGGATT
B4: AUAGGGU (DNA:RNA)
RNA: B1 RNA with C25A, U29G, A31U
DNA 1: CAATCTGAATTCCGGTCTCCC
DNA 2: TGGTGGCTACGACGGGATT
B5: ACAGCAC (DNA:RNA)
RNA: B1 RNA with C25A, U26C, U29C, G30A, A31C
DNA 1: CAATCTGAATTCCGGTCTCCC
DNA 2: TGGTGGCTACGACGGGATT
B6: CAAGGAA (DNA:RNA)
RNA: B1 RNA with U26A, U29G, G30A
DNA 1: CAATCTGAATTCCGGTCTCCC
DNA 2: TGGTGGCTACGACGGGATT
B7: UUAAUCG (DNA:RNA)
RNA: B1 RNA with C25U, G28A, G30C, A31G
DNA 1: CAATCTGAATTCCGGTCTCCC
DNA 2: TGGTGGCTACGACGGGATT
B8: GGUCACU (DNA:RNA)
RNA: GGGAGACCGGAAUUCAGAUUGUCCGGUCACUUUAAAUCCCGUCGUAGCCACCA
DNA 1: CAATCTGAATTCCGGTCTCCC
DNA 2: TGGTGGCTACGACGGGATT
B9: AAACUAA (DNA:RNA)
RNA: B1 RNA with C25A, U26A, G28C, G30A
DNA 1: CAATCTGAATTCCGGTCTCCC
DNA 2: TGGTGGCTACGACGGGATT
B10: UGGGAUG (DNA:RNA)
RNA: B8 RNA with G25U, U27G, C28G, C30U, U31G
DNA 1: CAATCTGAATTCCGGTCTCCC
DNA 2: TGGTGGCTACGACGGGATT
B11: CGAAAAA (DNA:RNA)
RNA: B1 RNA with U26G, G28A, U29A, G30A
DNA 1: CAATCTGAATTCCGGTCTCCC
DNA 2: TGGTGGCTACGACGGGATT
B12: CUAAUGU (DNA:RNA)
RNA: B1 RNA with G28A, A31U
DNA 1: CAATCTGAATTCCGGTCTCCC
DNA 2: TGGTGGCTACGACGGGATT
B13: UCAGGGU (DNA:RNA)
RNA: B1 RNA with C25U, U26C, U29G, A31U
DNA 1: CAATCTGAATTCCGGTCTCCC
DNA 2: TGGTGGCTACGACGGGATT
B14: CCGUUUG (DNA:RNA)
RNA: B1 RNA with U26C, A27G, G28U, G30U, A31G
DNA 1: CAATCTGAATTCCGGTCTCCC
DNA 2: TGGTGGCTACGACGGGATT
B15: CGCGCGU (DNA:RNA)
RNA: B1 RNA with U26G, A27C, U29C, A31U
DNA 1: CAATCTGAATTCCGGTCTCCC
DNA 2: TGGTGGCTACGACGGGATT
B16: CCGGCCU (DNA:RNA)
RNA: B1 RNA with U26C, A27G, U29C, G30C, A31U
DNA 1: CAATCTGAATTCCGGTCTCCC
DNA 2: TGGTGGCTACGACGGGATT
B17: CUCAACC (DNA:RNA)
RNA: B1 RNA with A27C, G28A, U29A, G30C, A31C
DNA 1: CAATCTGAATTCCGGTCTCCC
DNA 2: TGGTGGCTACGACGGGATT
B18: ACCUAGA (DNA:RNA)
RNA: B1 RNA with C25A, U26C, A27C, G28U, U29A
DNA 1: CAATCTGAATTCCGGTCTCCC
DNA 2: TGGTGGCTACGACGGGATT
B19: GCACGCG (DNA:RNA)
RNA: B8 RNA with G26C, U27A, A29G, U31G
DNA 1: CAATCTGAATTCCGGTCTCCC
DNA 2: TGGTGGCTACGACGGGATT
B20: GUCCUAC (DNA:RNA)
RNA: B1 RNA with C25G, A27C, G28C, G30A, A31C
DNA 1: CAATCTGAATTCCGGTCTCCC
DNA 2: TGGTGGCTACGACGGGATT

Molecular target: T1, RBFOX1 RRM
Assay: EMSA; HiTS-Eq, 1 nM pool, 10 min; buffer printed only for the single-RNA assays: 10 mM Tris pH 7.5, 150 mM NaCl, 3.4 mM EDTA, 0.001% NP-40, 30 C
Settings: tags: His6 N-terminal (pET28a); label: 5' 32P
Procedure, shortened: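 Purified RbFox RRM, wild type or mutant, was incubated for 10 min in 50 µL with 1 nM of a 5′-radiolabelled RNA pool carrying 7 randomized nucleotides, whose flanks were annealed to DNA oligonucleotides, over a series of increasing protein concentrations. Unbound RNA was resolved on 8% native PAGE, cut out, reverse-transcribed, barcoded by PCR and sequenced on an Illumina HiSeq 2500. Relative association constants were derived from changes in read counts for each RNA species versus the control reaction and normalised to the cognate motif.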

Binder | binding signal
B1 | 0.00852 KA relative to UGCAUGU
B2 | 0.00144 KA relative to UGCAUGU
B3 | 0.0065 KA relative to UGCAUGU
B4 | 0.00664 KA relative to UGCAUGU
B5 | 0.00464 KA relative to UGCAUGU
B6 | 0.00944 KA relative to UGCAUGU
B7 | 0.0123 KA relative to UGCAUGU
B8 | 0.0035 KA relative to UGCAUGU
B9 | 0.00123 KA relative to UGCAUGU
B10 | 0.0414 KA relative to UGCAUGU
B11 | 0.00119 KA relative to UGCAUGU
B12 | 0.00674 KA relative to UGCAUGU
B13 | 0.00906 KA relative to UGCAUGU
B14 | 0.0217 KA relative to UGCAUGU
B15 | 0.0184 KA relative to UGCAUGU
B16 | 0.0204 KA relative to UGCAUGU
B17 | 0.000946 KA relative to UGCAUGU
B18 | 0.00353 KA relative to UGCAUGU
B19 | 0.0376 KA relative to UGCAUGU
B20 | 0.00966 KA relative to UGCAUGU
